Reference: publication PMC11783601, “Analogue-Sensitive Inhibition of Histone Demethylases Uncovers Member-Specific Function in Ribosomal Protein Synthesis” (Journal of the American Chemical Society, 2025)
Where “and” joins values, the source holds several entries; their conditions need not be identical. Equal entries are not always repeated.

Target: T1, KDM4A F185A (asKDM4A) in HEK293T cells (Homo sapiens, UniProt O75164, F185A)
T1 construct: we generated the F185A mutation in full-length KDM4A carrying all of the functional domains; host or cells: HEK293T
T1 sequence (O75164 1-1064 F185A): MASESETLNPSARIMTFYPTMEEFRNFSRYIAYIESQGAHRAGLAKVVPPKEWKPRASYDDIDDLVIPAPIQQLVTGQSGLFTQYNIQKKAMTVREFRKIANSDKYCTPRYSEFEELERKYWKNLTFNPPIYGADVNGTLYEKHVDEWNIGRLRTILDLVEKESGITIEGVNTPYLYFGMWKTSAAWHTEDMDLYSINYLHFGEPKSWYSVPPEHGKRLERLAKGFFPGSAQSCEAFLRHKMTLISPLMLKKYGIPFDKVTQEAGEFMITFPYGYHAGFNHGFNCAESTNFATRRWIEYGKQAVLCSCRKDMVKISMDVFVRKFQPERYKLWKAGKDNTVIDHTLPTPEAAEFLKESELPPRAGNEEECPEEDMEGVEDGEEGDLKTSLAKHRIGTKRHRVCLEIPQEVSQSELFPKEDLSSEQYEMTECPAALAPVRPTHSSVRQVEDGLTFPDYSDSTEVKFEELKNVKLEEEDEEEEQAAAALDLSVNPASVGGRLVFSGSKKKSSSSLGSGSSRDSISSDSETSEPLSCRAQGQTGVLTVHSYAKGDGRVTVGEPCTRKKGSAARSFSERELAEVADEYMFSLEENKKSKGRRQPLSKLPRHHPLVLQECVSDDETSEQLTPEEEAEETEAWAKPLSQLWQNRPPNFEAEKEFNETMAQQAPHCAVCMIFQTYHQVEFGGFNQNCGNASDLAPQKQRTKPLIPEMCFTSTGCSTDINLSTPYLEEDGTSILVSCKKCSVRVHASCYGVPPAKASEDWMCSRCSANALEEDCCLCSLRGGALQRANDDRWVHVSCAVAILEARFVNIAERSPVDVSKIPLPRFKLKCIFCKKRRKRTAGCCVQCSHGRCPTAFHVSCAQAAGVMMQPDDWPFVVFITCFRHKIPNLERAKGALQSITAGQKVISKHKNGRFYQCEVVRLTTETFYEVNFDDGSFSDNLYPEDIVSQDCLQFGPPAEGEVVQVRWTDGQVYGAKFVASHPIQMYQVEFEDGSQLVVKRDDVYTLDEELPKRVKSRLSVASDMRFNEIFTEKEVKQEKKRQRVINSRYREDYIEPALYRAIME
Assay: Histone extraction, digestion and tandem mass spectrometry (relative abundance of histone modifications)
Type: cell-based
Description: HEK293T cells were transiently transfected with asKDM4A and treated with varying concentrations of 6A or 6B. […] To further confirm the activity of the enzyme–inhibitor pair, we performed tandem mass spectrometry of tryptic histones isolated from HEK293T cells expressing asKDM4A in the presence or absence of 100 μM 6A. […]
22. Histone extraction, digestion and tandem mass spectrometry
HEK 293-T cells (ATCC CRL-1573) were plated into 6-well plates (Corning) in DMEM (Corning) supplemented with 10% FBS (Corning) and 1X Antibiotic/Antimycin
(Penicillin/Streptomycin/Fungiozone) (Cytiva HyClone) in an incubator held at 37 °C with 5%
CO2. At 75% confluency, cells were transfected with 2.5 µg KDM4A F185A or Empty Vector with 5µg Thermo Turbofect (FERR0531). After 4 hours, the media was washed and 200 µM of 6A or equivalent volume of DMSO was added and left to incubate at 37 °C for 24 hours. Cells were then washed with 1X PBS (Corning) followed by trypsinization (Gibco TrypLE™ Express Enzyme). Collected cells were centrifuged at 3000xg for 3 minutes, followed by washing with 1X PBS and centrifuged for an additional 3000xg for 3 minutes. Histone proteins were extracted from the pellet as described by25 to ensure good-quality identification and quantification of single histone marks. Briefly, cell pellets were dissolved in 100 µL of cold 0.2 M H2SO4 and incubated for 2 hours rotating in a cold room (4 °C). Aliquots were then centrifuged at 3400xg for 5 minutes […]
at 4 °C and the supernatant was added to a fresh tube. 100% cold TCA was then added to a final volume of 33% volume/volume TCA/supernatant and left to incubate for 1 hour in a cold room (4 °C). Samples were then centrifuged at 3400xg for 5 min at 4 °C and the supernatant was discarded. The precipitate was then washed with cold acetone/0.1% HCl and centrifuged at 3400xg for 5 minutes at 4 °C. The supernatant was discarded, and the precipitate was washed with cold acetone and centrifuged at 3400xg for 5 minutes at 4 °C. The supernatant was discarded, and the pellet was dried using a vacuum centrifuge.
The pellet was dissolved in 50 mM ammonium bicarbonate, pH 8.0, and histones were subjected to derivatization using 5 µL of propionic anhydride and 14 µL of ammonium hydroxide (all Sigma Aldrich) to balance the pH at 8.0. The mixture was incubated for 15 min and the procedure was repeated. Histones were then digested with 1 µg of sequencing grade trypsin (Promega) diluted in 50mM ammonium bicarbonate (1:20, enzyme:sample) overnight at room temperature.
Derivatization reaction was repeated to derivatize peptide N-termini. The samples were dried in a […]
Sample desalting: Prior to mass spectrometry analysis, samples were desalted using a 96-well plate filter (Orochem) packed with 1 mg of Oasis HLB C-18 resin (Waters). Briefly, the samples were resuspended in 100 µl of 0.1% TFA and loaded onto the HLB resin, which was previously equilibrated using 100 µl of the same buffer. After washing with 100 µl of 0.1% TFA, the samples were eluted with a buffer containing 70 µl of 60% acetonitrile and 0.1% TFA and then dried in a […]
LC-MS/MS Acquisition and Analysis: Samples were resuspended in 10 µl of 0.1% TFA and loaded onto a Dionex RSLC […] (Thermo Scientific), coupled online with an Orbitrap Fusion Lumos (Thermo Scientific). Chromatographic separation was performed with a two-column system, consisting of a C-18 trap cartridge (300 µm ID, 5 mm length) and a picofrit analytical column (75 µm ID, 25 cm length) packed in-house with reversed-phase Repro-Sil Pur C18-AQ 3 µm resin. Peptides were separated using a 30 min gradient from 1-30% buffer B (buffer A: 0.1% formic acid, buffer B: 80% acetonitrile + 0.1% formic acid) at a flow rate of 300 nl/min.
The mass spectrometer was set to acquire spectra in a data-independent acquisition (DIA) mode.

[1] = peptide KSAPSTGGVKKPHR(H33_27_40), NOL-treated samples, replicates _1 and _2, listed as NOL
[2] = peptide KSTGGKAPR(H3_9_17), NOL-treated samples, replicates _1 and _2, listed as NOL
[3] = peptide KVLR(H4_20_23), NOL sample, replicates _1 and _2, listed as NOL
[4] = peptide SGRGKQGGKAR(H2A1_1_11), NOL sample, replicates _1 and _2, listed as NOL
[5] = peptide TKQTAR(H3_3_8), NOL-treated samples, replicates _1 and _2, listed as NOL
[6] = peptide YQKSTELLIR(H3_54_63), NOL-treated samples, replicates _1 and _2
[7] = unmod(H1_1_35), NOL sample, replicates _1 and _2
[8] = unmod(H1_54_81), NOL sample, replicates _1 and _2
[9] = unmod(H2A_1_88) variant share, F185A cells treated with NOL, replicates _1, _2, listed as NOL

CC(C)CC(NC(=O)C(=O)O)C(=O)O (stereo not drawn) [compound 6, N-oxalyl leucine]
Ratio H33_27_40 K27me3S28ph (peptide KSAPSTGGVKKPHR(H33_27_40), NOL-treated samples, replicates _1 and _2): 0
Ratio H33_27_40 K27me1 [1]: 0.03588 and 0.02549
Ratio H33_27_40 K27me1K36me1 [1]: 0.04799 and 0.03537
Ratio H33_27_40 K27me1K36me2 [1]: 0.1098 and 0.111
Ratio H33_27_40 K27me1K36me3 [1]: 0.02104 and 0.03377
Ratio H33_27_40 K27me2 [1]: 0.08498 and 0.06535
Ratio H33_27_40 K27me2K36me1 [1]: 0.1416 and 0.09735
Ratio H33_27_40 K27me2K36me2 [1]: 0.2427 and 0.3114
Ratio H33_27_40 K27me3 [1]: 0.05703 and 0.02721
Ratio H33_27_40 K27me3K36me1 [1]: 0.02034 and 0.008575
Ratio H33_27_40 K27me3K36me2 [1]: 0.04135 and 0.06259
Ratio H33_27_40 K36me1 [1]: 0.02463 and 0.01515
Ratio H33_27_40 K36me2 [1]: 0.05863 and 0.05349
Ratio H33_27_40 K36me3 [1]: 0.01575 and 0.03587
Ratio H33_27_40 unmod [1]: 0.0968 and 0.08026
Ratio H3_9_17 K9ac [2]: 0.002877 and 0.002982
Ratio H3_9_17 K9acS10phK14ac [2]: 4e-6 and 6e-6
Ratio H3_9_17 K9me1K14ac [2]: 0.08639 and 0.06409
Ratio H3_9_17 K9me2 [2]: 0.221 and 0.1719
Ratio H3_9_17 K9me2K14ac [2]: 0.1958 and 0.3126
Ratio H3_9_17 K9me2S10phK14ac [2]: 0.001247 and 0.000958
Ratio H3_9_17 K9me3 [2]: 0.1049 and 0.1007
Ratio H3_9_17 K9me3K14ac [2]: 0.04906 and 0.08096
Ratio H3_9_17 K9me3S10ph [2]: 0.001779 and 0.002103
Ratio H3_9_17 K14ac [2]: 0.08363 and 0.1154
Ratio H3_9_17 unmod [2]: 0.0977 and 0.1183
Ratio H4_20_23 K20me1 [3]: 0.4844 and 0.3612
Ratio H4_20_23 K20me2 [3]: 0.1012 and 0.2416
Ratio H4_20_23 K20me3 [3]: 0.03481 and 0.03641
Ratio H4_20_23 unmod [3]: 0.3766 and 0.3482
Ratio H4_40_45 unmod (peptide RGGVKR(H4_40_45), NOL sample, replicates _1 and _2, listed as NOL): 1 and 0.9996
Ratio H2A1_1_11 K5ac [4]: 0.134 and 0.1299
Ratio H2A1_1_11 unmod [4]: 0.6208 and 0.8483
Ratio H3_3_8 K4me1 [5]: 0.1039 and 0.09374
Ratio H3_3_8 unmod [5]: 0.8936 and 0.892
Ratio H3_54_63 K56ac (peptide YQKSTELLIR(H3_54_63), NOL sample, replicates _1 and _2): 0
Ratio H3_54_63 K56me2 [6]: 0
Ratio H3_54_63 K56me3 [6]: 0
Ratio H3_41_49 unmod (peptide YRPGTVALR(H3_41_49), NOL-treated samples, replicates _1 and _2, listed as NOL): 1 and 0.9983
Ratio H1_1_35 H11.SETAPVAQAASTATEKPAAAKKTKKPAKAAAPR [7]: 0
Ratio H1_1_35 H13.SETAPAAPAAPAPVEKTPVKKKAKKTGAAAGKR [7]: 0
Ratio H1_1_35 H15.SETAPAETAAPAPVEKSPAKKKTTKKAGAAKR [7]: 0
Ratio H1_54_81 H11.SGVSLAALKKSLAAAGYDVEKNNSR [8]: 0
Ratio H1_54_81 H15.GGVSLPALKKALAAGGYDVEKNNSR [8]: 0
Ratio H1_54_81 H1v234.SGVSLAALKKALAAAGYDVEKNNSR (unmod(H1_54_81), NOL sample, replicates _1 and _2, listed as NOL): 1 and 0.6593
Ratio H2A_1_88 H2A14s.HLQLAIR [9]: 0.8513 and 0.9512
Ratio H2A_1_88 H2AX.GKTGGKAR [9]: 0.01888 and 0.009712
Ratio H2B_1_29 1B.PEPSKSAPAPKKGSKKAISKAQKKDGKKR (unmod(H2B_1_29), F185A cells treated with NOL, replicates _1, _2): 0
